The assay concerns NCI-H322M lung. The experiment in a line: NCI-60 cell line screen, 48 h.

The record followed here is PubChem BioAssay (NCI).

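Results reflect a 48-hour exposure of cells in 96-well plates to compound at five concentrations. At the GI50, growth is halved. TGI marks complete inhibition of growth.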

Consider `CN(C)c1ccc(/C=C/c2n(Cc3ccc4ccccc4c3)c3ccccc3[n+]2Cc2ccc3ccccc3c2)cc1`, for which the GI50 was 0.456 µM and the TGI is 1.7 µM.
`CC1(C)CC[C@]2(C(=O)O)CC[C@]3(C)C(=CCC4[C@@]5(C)C[C@@H](O)[C@@H]6OC(c7ccccc7F)OC[C@@]6(C)C5CC[C@]43C)C2C1` (stereo not given in full): the GI50 is 3.3 µM and the TGI is 14.3 µM.
The like results for `CS(=O)(=O)Nc1ccc(-c2ccc3c(c2)ncn3-c2ccc(NC(=O)Nc3ccc(Br)cc3)cc2)cc1` were, in that order, 4.01 µM and above 72.3 µM.
For `CCCSc1nc(Nc2ccc(S(N)(=O)=O)cc2)c(C#N)c(-c2cc(OC)c(OC)c(OC)c2)n1`, the GI50 was 22.1 µM and the TGI is above 100 µM.
For the compound `CC(C)Sc1nc(NCCc2c[nH]c3ccccc23)c(C#N)c(-c2ccc(F)cc2)n1`, the GI50 was 14.3 µM and the TGI was 29.7 µM.
